Experimental data taken from the supplement of paper PMC9588766.
Counter-ions that a name gives are not always drawn. Over roughly 1,900 compounds, “cell viability of compound + 1 nM pemigatinib relative to pemigatinib-only (DMSO) wells” has its median near 0.95; the lowest 2% begin near 0.22. The list shows a part of the results.

These compounds were tested on PDC-DUC18828 (assay: cell viability of compound + 1 nM pemigatinib relative to pemigatinib-only (DMSO) wells (fraction); PDC-DUC18828 is a patient-derived cholangiocarcinoma cell line; higher = less growth inhibition). Details: first compound 1 µM; pemigatinib concentration 1 nM; 72 h.
Procedure: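 Selleck Bioactive library screen in the patient-derived FGFR2 fusion-positive ICC cell line PDC-DUC18828 (500 cells/well). Each compound was tested at 1 uM with 1 nM pemigatinib, in triplicate, for 72 h. Viability was read by CellTiter-Glo and normalised to plate DMSO controls. Value is the paper's averaged normalised viability.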
With `Cc1cc(NS(=O)(=O)c2ccc(N)cc2)no1` [Sulfamethoxazole] + CCN1C(=O)N(c2c(F)c(OC)cc(OC)c2F)Cc2cnc3[nH]c(CN4CCOCC4)cc3c21 [pemigatinib] the cell viability was 0.959. For `COc1cc(N2CCC(N)CC2)ccc1Nc1ncc(Cl)c(-c2c[nH]c3ccccc23)n1` + CCN1C(=O)N(c2c(F)c(OC)cc(OC)c2F)Cc2cnc3[nH]c(CN4CCOCC4)cc3c21 [pemigatinib], the cell viability was 0.704. `CCOC(=O)n1ccn(C)c1=S` [Carbimazole] + CCN1C(=O)N(c2c(F)c(OC)cc(OC)c2F)Cc2cnc3[nH]c(CN4CCOCC4)cc3c21 [pemigatinib] showed a cell viability of 0.916. In the case of `Nc1[nH]nc2nnc(-c3c(-c4ccccc4)nn4ccccc34)cc12` + CCN1C(=O)N(c2c(F)c(OC)cc(OC)c2F)Cc2cnc3[nH]c(CN4CCOCC4)cc3c21 [pemigatinib], the cell viability was 1.03. `CC1(C)S[C@@H]2[C@H](NC(=O)C(C(=O)O)c3ccccc3)C(=O)N2[C@H]1C(=O)O` (stereo partly specified) [Carbenicillin disodium] + CCN1C(=O)N(c2c(F)c(OC)cc(OC)c2F)Cc2cnc3[nH]c(CN4CCOCC4)cc3c21 [pemigatinib] was tested, and the cell viability was 0.929. With `CC(C)N(CCCNC(=O)Nc1ccc(C(C)(C)C)cc1)C[C@H]1O[C@@H](n2cc(Br)c3c(N)ncnc32)[C@H](O)[C@@H]1O` + CCN1C(=O)N(c2c(F)c(OC)cc(OC)c2F)Cc2cnc3[nH]c(CN4CCOCC4)cc3c21 [pemigatinib] the cell viability was 0.957. `CC(C)(C)C(=O)C(Oc1ccc(Cl)cc1)n1ccnc1` (stereo unspecified) [Climbazole] + CCN1C(=O)N(c2c(F)c(OC)cc(OC)c2F)Cc2cnc3[nH]c(CN4CCOCC4)cc3c21 [pemigatinib] showed a cell viability of 1.02. Work on `CCCCNc1cc(C(=O)O)cc(S(N)(=O)=O)c1Oc1ccccc1` [Bumetanide] + CCN1C(=O)N(c2c(F)c(OC)cc(OC)c2F)Cc2cnc3[nH]c(CN4CCOCC4)cc3c21 [pemigatinib] yielded a cell viability of 1.04. Compound `C[C@H](Cn1cnc2c(N)ncnc21)OCP(=O)(O)O` [Tenofovir] + CCN1C(=O)N(c2c(F)c(OC)cc(OC)c2F)Cc2cnc3[nH]c(CN4CCOCC4)cc3c21 [pemigatinib] has a cell viability of 0.974. With `O=c1ccn([C@@H]2O[C@H](CO)[C@@H](O)[C@H]2O)c(=O)[nH]1` [Uridine] + CCN1C(=O)N(c2c(F)c(OC)cc(OC)c2F)Cc2cnc3[nH]c(CN4CCOCC4)cc3c21 [pemigatinib] the cell viability was 0.97. `CC(C)n1c(/C=C/C(O)CC(O)CC(=O)O)c(-c2ccc(F)cc2)c2ccccc21` (stereo unspecified) [Fluvastatin Sodium] + CCN1C(=O)N(c2c(F)c(OC)cc(OC)c2F)Cc2cnc3[nH]c(CN4CCOCC4)cc3c21 [pemigatinib] was tested, and the cell viability was 0.811. `Cc1ccnc(NS(=O)(=O)c2ccc(N)cc2)n1` [Sulfamerazine] + CCN1C(=O)N(c2c(F)c(OC)cc(OC)c2F)Cc2cnc3[nH]c(CN4CCOCC4)cc3c21 [pemigatinib] gave a cell viability of 0.864. For `NC(=O)OCC(COC(N)=O)c1ccccc1` [Felbamate] + CCN1C(=O)N(c2c(F)c(OC)cc(OC)c2F)Cc2cnc3[nH]c(CN4CCOCC4)cc3c21 [pemigatinib], the cell viability was 0.988. `CCC[S+]([O-])c1ccc2[nH]c(NC(=O)OC)nc2c1` (stereo unspecified) [Albendazole Oxide] + CCN1C(=O)N(c2c(F)c(OC)cc(OC)c2F)Cc2cnc3[nH]c(CN4CCOCC4)cc3c21 [pemigatinib] was tested, and the cell viability was 0.951. Work on `COC(=O)Nc1ccc(-c2nc(N3CCOCC3)c3cnn(C4CCN(C(=O)OC)CC4)c3n2)cc1` + CCN1C(=O)N(c2c(F)c(OC)cc(OC)c2F)Cc2cnc3[nH]c(CN4CCOCC4)cc3c21 [pemigatinib] yielded a cell viability of 0.955. `COC(=O)N[C@H](C(=O)N[C@@H](Cc1ccccc1)[C@@H](O)CN(Cc1ccc(-c2ccccn2)cc1)NC(=O)[C@@H](NC(=O)OC)C(C)(C)C)C(C)(C)C` [Atazanavir Sulfate] + CCN1C(=O)N(c2c(F)c(OC)cc(OC)c2F)Cc2cnc3[nH]c(CN4CCOCC4)cc3c21 [pemigatinib] was tested, and the cell viability was 1. With `CNC[C@H](O)[C@@H](O)[C@H](O)[C@H](O)CO` [Meglumine] + CCN1C(=O)N(c2c(F)c(OC)cc(OC)c2F)Cc2cnc3[nH]c(CN4CCOCC4)cc3c21 [pemigatinib] the cell viability was 1.01. `O=c1cc(-c2ccccc2)oc2cc(O)c(O)c(O)c12` [Baicalein] + CCN1C(=O)N(c2c(F)c(OC)cc(OC)c2F)Cc2cnc3[nH]c(CN4CCOCC4)cc3c21 [pemigatinib] was tested, and the cell viability was 1. In the case of `COc1cc(C2Oc3cc([C@H]4Oc5cc(O)cc(O)c5C(=O)[C@@H]4O)ccc3OC2CO)ccc1O` (stereo partly specified) [Silymarin] + CCN1C(=O)N(c2c(F)c(OC)cc(OC)c2F)Cc2cnc3[nH]c(CN4CCOCC4)cc3c21 [pemigatinib], the cell viability was 0.938. `COc1cc(C2Oc3cc([C@H]4Oc5cc(O)cc(O)c5C(=O)[C@@H]4O)ccc3OC2CO)ccc1O` (stereo partly specified) [Silibinin] + CCN1C(=O)N(c2c(F)c(OC)cc(OC)c2F)Cc2cnc3[nH]c(CN4CCOCC4)cc3c21 [pemigatinib] showed a cell viability of 0.976. `O=C(O)Cc1cccc(OCCCN(Cc2cccc(C(F)(F)F)c2Cl)CC(c2ccccc2)c2ccccc2)c1` + CCN1C(=O)N(c2c(F)c(OC)cc(OC)c2F)Cc2cnc3[nH]c(CN4CCOCC4)cc3c21 [pemigatinib] was tested, and the cell viability was 1.02. With `CC(=O)N[C@@H](CS)C(=O)O` [Acetylcysteine] + CCN1C(=O)N(c2c(F)c(OC)cc(OC)c2F)Cc2cnc3[nH]c(CN4CCOCC4)cc3c21 [pemigatinib] the cell viability was 1.1. In the case of `C[C@]1(c2nc3c(C(N)=O)cccc3[nH]2)CCCN1` [Veliparib (ABT-888)] + CCN1C(=O)N(c2c(F)c(OC)cc(OC)c2F)Cc2cnc3[nH]c(CN4CCOCC4)cc3c21 [pemigatinib], the cell viability was 1.03. `O=C1CCC[C@@H]2[C@H]3CCC[N+]4([O-])CCC[C@@H](CN12)[C@@H]34` (stereo partly specified) [Oxymatrine] + CCN1C(=O)N(c2c(F)c(OC)cc(OC)c2F)Cc2cnc3[nH]c(CN4CCOCC4)cc3c21 [pemigatinib] gave a cell viability of 0.974. For `COc1cccc2cc(-c3nc([C@H]4CC[C@H](C(=O)O)CC4)n4ncnc(N)c34)[nH]c12` + CCN1C(=O)N(c2c(F)c(OC)cc(OC)c2F)Cc2cnc3[nH]c(CN4CCOCC4)cc3c21 [pemigatinib], the cell viability was 0.241. `Clc1ccc(C(Cn2ccnc2)OCc2ccc(Sc3ccccc3)cc2)c(Cl)c1` (stereo unspecified) [Fenticonazole Nitrate] + CCN1C(=O)N(c2c(F)c(OC)cc(OC)c2F)Cc2cnc3[nH]c(CN4CCOCC4)cc3c21 [pemigatinib] gave a cell viability of 0.928. `CC[C@H](C)C(=O)O[C@H]1C[C@@H](C)C=C2C=C[C@H](C)[C@H](CC[C@@H]3C[C@@H](O)CC(=O)O3)[C@H]21` [Lovastatin] + CCN1C(=O)N(c2c(F)c(OC)cc(OC)c2F)Cc2cnc3[nH]c(CN4CCOCC4)cc3c21 [pemigatinib] showed a cell viability of 0.986. Work on `CCN(CC)CCOC(=O)c1ccc(N)cc1` [Procaine HCl] + CCN1C(=O)N(c2c(F)c(OC)cc(OC)c2F)Cc2cnc3[nH]c(CN4CCOCC4)cc3c21 [pemigatinib] yielded a cell viability of 0.953. Compound `CC(=O)O[C@H]1C[C@@H]2CC[C@@H]3[C@H](CC[C@@]4(C)[C@H]3C[C@H]([N+]3(C)CCCCC3)[C@@H]4OC(C)=O)[C@@]2(C)C[C@@H]1N1CCCCC1` [Vecuronium Bromide] + CCN1C(=O)N(c2c(F)c(OC)cc(OC)c2F)Cc2cnc3[nH]c(CN4CCOCC4)cc3c21 [pemigatinib] has a cell viability of 1.09. `Cn1nnc(-c2ccc3c(c2)[nH]c2nc(Cc4ccccc4)nc(NC4CCC(N)CC4)c23)n1` (stereo unspecified) + CCN1C(=O)N(c2c(F)c(OC)cc(OC)c2F)Cc2cnc3[nH]c(CN4CCOCC4)cc3c21 [pemigatinib] was tested, and the cell viability was 0.875. With `C[C@@H](O)[C@H]1C(=O)N2C(C(=O)O)=C(S[C@@H]3CN[C@H](C(=O)N(C)C)C3)[C@H](C)[C@H]12` [Meropenem] + CCN1C(=O)N(c2c(F)c(OC)cc(OC)c2F)Cc2cnc3[nH]c(CN4CCOCC4)cc3c21 [pemigatinib] the cell viability was 1.02. `CCN(CC)C(=O)/C(C#N)=C/c1cc(O)c(O)c([N+](=O)[O-])c1` [Entacapone] + CCN1C(=O)N(c2c(F)c(OC)cc(OC)c2F)Cc2cnc3[nH]c(CN4CCOCC4)cc3c21 [pemigatinib] showed a cell viability of 0.873. Compound `C[C@@H]1O[C@@H](OC[C@H]2O[C@@H](Oc3c(-c4ccc(OCCO)c(OCCO)c4)oc4cc(OCCO)cc(O)c4c3=O)[C@H](O)[C@@H](O)[C@@H]2O)[C@H](O)[C@H](O)[C@H]1O` [Troxerutin] + CCN1C(=O)N(c2c(F)c(OC)cc(OC)c2F)Cc2cnc3[nH]c(CN4CCOCC4)cc3c21 [pemigatinib] has a cell viability of 0.954. Compound `CC1(C)O[C@@H]2C[C@H]3[C@@H]4CCC5=CC(=O)CC[C@]5(C)[C@@]4(F)[C@@H](O)C[C@]3(C)[C@]2(C(=O)CCl)O1` [Halcinonide] + CCN1C(=O)N(c2c(F)c(OC)cc(OC)c2F)Cc2cnc3[nH]c(CN4CCOCC4)cc3c21 [pemigatinib] has a cell viability of 0.86. With `C[C@]12C=CC(=O)C=C1CC[C@H]1[C@@H]3C[C@@H](O)[C@](O)(C(=O)CO)[C@@]3(C)C[C@H](O)[C@@]12F` [Triamcinolone] + CCN1C(=O)N(c2c(F)c(OC)cc(OC)c2F)Cc2cnc3[nH]c(CN4CCOCC4)cc3c21 [pemigatinib] the cell viability was 0.894. `N#Cc1ccc(COC[C@H]2O[C@@H](n3c(NCc4ccc(Cl)c(Cl)c4)nc4c(N)ncnc43)[C@H](O)[C@@H]2O)cc1` + CCN1C(=O)N(c2c(F)c(OC)cc(OC)c2F)Cc2cnc3[nH]c(CN4CCOCC4)cc3c21 [pemigatinib] showed a cell viability of 0.88.
